Results as given in article PMC12820563.
The other results are listed elsewhere or left out. The list includes weakly bound sequences.

target: T1, MBP-FoxP3dN (UniProt Q99JB6); assay: PD-seq (MBP pull-down with sequencing); conditions: 20 mM Tris-HCl pH 7.5, 100 mM NaCl, 1.5 mM MgCl2, 0.4 uM protein, 0.1 uM dsDNA library, 30 min, room temperature, amylose pull-down; high values mean tight binding; double strand, one strand shown
T1 sequence: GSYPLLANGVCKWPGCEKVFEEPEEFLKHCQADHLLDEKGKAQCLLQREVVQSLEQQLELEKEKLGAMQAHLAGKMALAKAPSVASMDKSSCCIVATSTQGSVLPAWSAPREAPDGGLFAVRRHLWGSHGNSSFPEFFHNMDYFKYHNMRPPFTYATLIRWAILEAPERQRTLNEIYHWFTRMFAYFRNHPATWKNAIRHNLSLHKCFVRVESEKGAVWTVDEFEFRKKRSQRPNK

Row | Sequence | binding signal (RPM ratio (pull-down/input))
1 | GATGATTGTTCTCCCAGCTGATGAATTTTGAGCATCGAGTAAACAAATTTTCCTAATCTTTCTGTTCAAGCGCCATCTAC | 0.906
2 | GATGATTGTTCTCCCAGCTGATGAATTTCGCCCGTCGAGTAAACAAATTTTCCTAATCTTTCTGTTCAAGCGCCATCTAC | 2.29
3 | GATGATTGTTCTCCCAGCTGATGAATTCGAAAAGTCGAGTAAACAAATTTTCCTAATCTTTCTGTTCAAGCGCCATCTAC | 0.177
4 | GATGATTGTTCTCCCAGCTGATGAATTTACCTTATCGAGTAAACAAATTTTCCTAATCTTTCTGTTCAAGCGCCATCTAC | 0.792
5 | GATGATTGTTCTCCCAGCTGATGAATTGCGGACCTCGAGTAAACAAATTTTCCTAATCTTTCTGTTCAAGCGCCATCTAC | 0.612
6 | GATGATTGTTCTCCCAGCTGATGAATTCTCAAGGTCGAGTAAACAAATTTTCCTAATCTTTCTGTTCAAGCGCCATCTAC | 0.153
7 | GATGATTGTTCTCCCAGCTGATGAATTACCCAGCTCGAGTAAACAAATTTTCCTAATCTTTCTGTTCAAGCGCCATCTAC | 0.235
8 | GATGATTGTTCTCCCAGCTGATGAATTTATCGCCTCGAGTAAACAAATTTTCCTAATCTTTCTGTTCAAGCGCCATCTAC | 1.07
9 | GATGATTGTTCTCCCAGCTGATGAATTAGCCACATCGAGTAAACAAATTTTCCTAATCTTTCTGTTCAAGCGCCATCTAC | 1.19
10 | GATGATTGTTCTCCCAGCTGATGAATTAGTCACATCGAGTAAACAAATTTTCCTAATCTTTCTGTTCAAGCGCCATCTAC | 0.91
11 | GATGATTGTTCTCCCAGCTGATGAATTGTACAACTCGAGTAAACAAATTTTCCTAATCTTTCTGTTCAAGCGCCATCTAC | 0.446
12 | GATGATTGTTCTCCCAGCTGATGAATTGTACGGATCGAGTAAACAAATTTTCCTAATCTTTCTGTTCAAGCGCCATCTAC | 0.269
13 | GATGATTGTTCTCCCAGCTGATGAATTTCAGTACTCGAGTAAACAAATTTTCCTAATCTTTCTGTTCAAGCGCCATCTAC | 0.341
14 | GATGATTGTTCTCCCAGCTGATGAATTGGCAATCTCGAGTAAACAAATTTTCCTAATCTTTCTGTTCAAGCGCCATCTAC | 1.21
15 | GATGATTGTTCTCCCAGCTGATGAATTTGCAGCTTCGAGTAAACAAATTTTCCTAATCTTTCTGTTCAAGCGCCATCTAC | 1.22
16 | GATGATTGTTCTCCCAGCTGATGAATTAGTTAGGTCGAGTAAACAAATTTTCCTAATCTTTCTGTTCAAGCGCCATCTAC | 1.51
17 | GATGATTGTTCTCCCAGCTGATGAATTTCCAACTTCGAGTAAACAAATTTTCCTAATCTTTCTGTTCAAGCGCCATCTAC | 0.278
18 | GATGATTGTTCTCCCAGCTGATGAATTGAACTTGTCGAGTAAACAAATTTTCCTAATCTTTCTGTTCAAGCGCCATCTAC | 0.381
19 | GATGATTGTTCTCCCAGCTGATGAATTTTGGGACTCGAGTAAACAAATTTTCCTAATCTTTCTGTTCAAGCGCCATCTAC | 0.331
20 | GATGATTGTTCTCCCAGCTGATGAATTATAAACCTCGAGTAAACAAATTTTCCTAATCTTTCTGTTCAAGCGCCATCTAC | 0.507
21 | GATGATTGTTCTCCCAGCTGATGAATTCCACACTTCGAGTAAACAAATTTTCCTAATCTTTCTGTTCAAGCGCCATCTAC | 0.363

Row | Sequence | binding signal (RPM ratio (pull-down/input))
22 | GATGATTGTTCTCCCAGCTGATGAATTCTGTAGTTCGAGTAAACAAATTTTCCTAATCTTTCTGTTCAAGCGCCATCTAC | 2.64
23 | GATGATTGTTCTCCCAGCTGATGAATTATGAGAGTCGAGTAAACAAATTTTCCTAATCTTTCTGTTCAAGCGCCATCTAC | 0.397
24 | GATGATTGTTCTCCCAGCTGATGAATTTACGGAATCGAGTAAACAAATTTTCCTAATCTTTCTGTTCAAGCGCCATCTAC | 0.368
25 | GATGATTGTTCTCCCAGCTGATGAATTTAAGGGTTCGAGTAAACAAATTTTCCTAATCTTTCTGTTCAAGCGCCATCTAC | 0.431
26 | GATGATTGTTCTCCCAGCTGATGAATTAGAAGCGTCGAGTAAACAAATTTTCCTAATCTTTCTGTTCAAGCGCCATCTAC | 0.488
27 | GATGATTGTTCTCCCAGCTGATGAATTGGACCCATCGAGTAAACAAATTTTCCTAATCTTTCTGTTCAAGCGCCATCTAC | 0.274
28 | GATGATTGTTCTCCCAGCTGATGAATTACGAATGTCGAGTAAACAAATTTTCCTAATCTTTCTGTTCAAGCGCCATCTAC | 0.705
29 | GATGATTGTTCTCCCAGCTGATGAATTGAGTCATTCGAGTAAACAAATTTTCCTAATCTTTCTGTTCAAGCGCCATCTAC | 0.966
30 | GATGATTGTTCTCCCAGCTGATGAATTCGTCCATTCGAGTAAACAAATTTTCCTAATCTTTCTGTTCAAGCGCCATCTAC | 0.523
31 | GATGATTGTTCTCCCAGCTGATGAATTGGTCTATTCGAGTAAACAAATTTTCCTAATCTTTCTGTTCAAGCGCCATCTAC | 0.712
32 | GATGATTGTTCTCCCAGCTGATGAATTATAGCTCTCGAGTAAACAAATTTTCCTAATCTTTCTGTTCAAGCGCCATCTAC | 0.514
33 | GATGATTGTTCTCCCAGCTGATGAATTGCGCCGCTCGAGTAAACAAATTTTCCTAATCTTTCTGTTCAAGCGCCATCTAC | 2.82
34 | GATGATTGTTCTCCCAGCTGATGAATTCCTCTCTTCGAGTAAACAAATTTTCCTAATCTTTCTGTTCAAGCGCCATCTAC | 0.21
35 | GATGATTGTTCTCCCAGCTGATGAATTAAGGACCTCGAGTAAACAAATTTTCCTAATCTTTCTGTTCAAGCGCCATCTAC | 0.27
36 | GATGATTGTTCTCCCAGCTGATGAATTCCGGCGATCGAGTAAACAAATTTTCCTAATCTTTCTGTTCAAGCGCCATCTAC | 0.388
37 | GATGATTGTTCTCCCAGCTGATGAATTCACCCTCTCGAGTAAACAAATTTTCCTAATCTTTCTGTTCAAGCGCCATCTAC | 0.324
38 | GATGATTGTTCTCCCAGCTGATGAATTGCTGATGTCGAGTAAACAAATTTTCCTAATCTTTCTGTTCAAGCGCCATCTAC | 0.843
39 | GATGATTGTTCTCCCAGCTGATGAATTAATGTCCTCGAGTAAACAAATTTTCCTAATCTTTCTGTTCAAGCGCCATCTAC | 0.913
40 | GATGATTGTTCTCCCAGCTGATGAATTCGGTGGGTCGAGTAAACAAATTTTCCTAATCTTTCTGTTCAAGCGCCATCTAC | 0.659
41 | GATGATTGTTCTCCCAGCTGATGAATTCAATGTGTCGAGTAAACAAATTTTCCTAATCTTTCTGTTCAAGCGCCATCTAC | 2.05
42 | GATGATTGTTCTCCCAGCTGATGAATTACAGTTGTCGAGTAAACAAATTTTCCTAATCTTTCTGTTCAAGCGCCATCTAC | 1.17

Row | Sequence | binding signal (RPM ratio (pull-down/input))
43 | GATGATTGTTCTCCCAGCTGATGAATTCTTGGGGTCGAGTAAACAAATTTTCCTAATCTTTCTGTTCAAGCGCCATCTAC | 0.242
44 | GATGATTGTTCTCCCAGCTGATGAATTTACGACCTCGAGTAAACAAATTTTCCTAATCTTTCTGTTCAAGCGCCATCTAC | 0.481
45 | GATGATTGTTCTCCCAGCTGATGAATTGCTTCATTCGAGTAAACAAATTTTCCTAATCTTTCTGTTCAAGCGCCATCTAC | 0.551
46 | GATGATTGTTCTCCCAGCTGATGAATTCTTGAGTTCGAGTAAACAAATTTTCCTAATCTTTCTGTTCAAGCGCCATCTAC | 0.421
47 | GATGATTGTTCTCCCAGCTGATGAATTGGTCCGGTCGAGTAAACAAATTTTCCTAATCTTTCTGTTCAAGCGCCATCTAC | 0.214
48 | GATGATTGTTCTCCCAGCTGATGAATTTAAAAAGTCGAGTAAACAAATTTTCCTAATCTTTCTGTTCAAGCGCCATCTAC | 0.15
49 | GATGATTGTTCTCCCAGCTGATGAATTAAGGGCATCGAGTAAACAAATTTTCCTAATCTTTCTGTTCAAGCGCCATCTAC | 0.763
50 | GATGATTGTTCTCCCAGCTGATGAATTCAATACTTCGAGTAAACAAATTTTCCTAATCTTTCTGTTCAAGCGCCATCTAC | 0.447
51 | GATGATTGTTCTCCCAGCTGATGAATTAGCGGATTCGAGTAAACAAATTTTCCTAATCTTTCTGTTCAAGCGCCATCTAC | 0.301
52 | GATGATTGTTCTCCCAGCTGATGAATTGTGACATTCGAGTAAACAAATTTTCCTAATCTTTCTGTTCAAGCGCCATCTAC | 2.74
53 | GATGATTGTTCTCCCAGCTGATGAATTCAGGAAGTCGAGTAAACAAATTTTCCTAATCTTTCTGTTCAAGCGCCATCTAC | 0.172
54 | GATGATTGTTCTCCCAGCTGATGAATTTAGCTAGTCGAGTAAACAAATTTTCCTAATCTTTCTGTTCAAGCGCCATCTAC | 1.18
55 | GATGATTGTTCTCCCAGCTGATGAATTAAACTACTCGAGTAAACAAATTTTCCTAATCTTTCTGTTCAAGCGCCATCTAC | 0.437
56 | GATGATTGTTCTCCCAGCTGATGAATTTCCGCCTTCGAGTAAACAAATTTTCCTAATCTTTCTGTTCAAGCGCCATCTAC | 3.28
57 | GATGATTGTTCTCCCAGCTGATGAATTAGTTGAGTCGAGTAAACAAATTTTCCTAATCTTTCTGTTCAAGCGCCATCTAC | 1.25
58 | GATGATTGTTCTCCCAGCTGATGAATTCAGAGAGTCGAGTAAACAAATTTTCCTAATCTTTCTGTTCAAGCGCCATCTAC | 0.193
59 | GATGATTGTTCTCCCAGCTGATGAATTAAACCTGTCGAGTAAACAAATTTTCCTAATCTTTCTGTTCAAGCGCCATCTAC | 0.319
60 | GATGATTGTTCTCCCAGCTGATGAATTTTTTACATCGAGTAAACAAATTTTCCTAATCTTTCTGTTCAAGCGCCATCTAC | 0.25
61 | GATGATTGTTCTCCCAGCTGATGAATTAATCGGTTCGAGTAAACAAATTTTCCTAATCTTTCTGTTCAAGCGCCATCTAC | 0.375
62 | GATGATTGTTCTCCCAGCTGATGAATTTCCGACTTCGAGTAAACAAATTTTCCTAATCTTTCTGTTCAAGCGCCATCTAC | 0.488
63 | GATGATTGTTCTCCCAGCTGATGAATTATGTCAGTCGAGTAAACAAATTTTCCTAATCTTTCTGTTCAAGCGCCATCTAC | 1.2
